Test results from paper PMC11995724, “Antibiotic target discovery by integrated phenotypic and activity-based profiling of electrophilic fragments” (Cell chemical biology, 2025).
The whole screen tested about 3,200 compounds, of which about 110 (3.4%) showed an effect of 50% or more. The list shows a part of the results.

Each compound was assayed on T1, V. cholerae SAD30. Settings: relative growth, OD600, LB; 25 µM; inhibitor.
T1 construct: SAD30
Parameters: species or system S. aureus MSSA476 (TSB) or V. cholerae SAD30 (LB); 384-well bacterial growth screen at 25 uM, OD600 relative to DMSO control

Compound	% of control remaining [%]
C=CC(=O)NC(C)(Cn1cccn1)C(N)=O (stereo not shown) [1-A20, N-{1-carbamoyl-1-[(1H-pyrazol-1-yl)methyl]ethyl}prop-2-enamide]	86.6966
N#CC(=Cc1ccc(-c2ccccc2F)o1)C(=O)Nc1nccs1 [9-A08, 2-cyano-3-[5-(2-fluorophenyl)furan-2-yl]-N-(1,3-thiazol-2-yl)prop-2-enamide]	85.0442
O=C(CCl)Nc1nc2c(s1)CCCC2 [5-G15, 2-chloro-N-(4,5,6,7-tetrahydro-1,3-benzothiazol-2-yl)acetamide]	95.156
N#CC(=Cc1ccc2[nH]c(=O)[nH]c2c1)C(=O)NC1CCCC1 [9-E03, 2-cyano-N-cyclopentyl-3-(2-oxo-2,3-dihydro-1H-1,3-benzodiazol-5-yl)prop-2-enamide]	99.3202
N#CC(=Cc1ccc(O)c([N+](=O)[O-])c1)C(=O)NCc1ccccc1 [8-O05, N-benzyl-2-cyano-3-(4-hydroxy-3-nitrophenyl)prop-2-enamide]	79.1978
C=CC(=O)NCc1cccc(-n2cccn2)n1 [1-M14, N-{[6-(1H-pyrazol-1-yl)pyridin-2-yl]methyl}prop-2-enamide]	88.3408
C=CC(=O)Nc1cccc(C(=O)C(C)(C)C)c1 [2-I18, N-[3-(2,2-dimethylpropanoyl)phenyl]prop-2-enamide]	90.8135
Cc1ccsc1CN(C(=O)CCl)C(C)C [7-P03, 2-chloro-N-[(3-methylthiophen-2-yl)methyl]-N-(propan-2-yl)acetamide]	97.0097
COc1ccc(NC(=O)C(C#N)=Cc2ccco2)cc1 [9-F19, 2-cyano-3-(furan-2-yl)-N-(4-methoxyphenyl)prop-2-enamide]	83.6846
O=C(CCl)NC(c1ccc(F)c(C(F)(F)F)c1)C1CC1 (stereo not shown) [7-B22, 2-chloro-N-{cyclopropyl[4-fluoro-3-(trifluoromethyl)phenyl]methyl}acetamide]	84.7183
CC(Cl)C(=O)N1CCC(c2cc3ccccc3[nH]2)C1 (stereo not shown) [7-O12, 2-chloro-1-[3-(1H-indol-2-yl)pyrrolidin-1-yl]propan-1-one]	66.0829
C=CCNC(=O)C(C#N)=Cc1ccc(OC)c(O)c1 [8-E21, 2-cyano-3-(3-hydroxy-4-methoxyphenyl)-N-(prop-2-en-1-yl)prop-2-enamide]	80.2855
N#Cc1c(NC(=O)CCl)oc(-c2cccs2)c1-c1cccs1 [6-I09, 2-chloro-N-[3-cyano-4,5-bis(thiophen-2-yl)furan-2-yl]acetamide]	54.299
CCC(NC(=O)CCl)c1c(C)noc1C (stereo not shown) [7-D03, 2-chloro-N-[1-(3,5-dimethyl-1,2-oxazol-4-yl)propyl]acetamide]	98.0671
C=CC(=O)NC1CCN(c2ccc(Cl)c(Cl)c2)C1 (stereo not shown) [1-C14, N-[1-(3,4-dichlorophenyl)pyrrolidin-3-yl]prop-2-enamide]	65.1719
CN(Cc1ccc(-c2ccc(Cl)cc2)o1)C(=O)CCl [5-I13, 2-chloro-N-{[5-(4-chlorophenyl)furan-2-yl]methyl}-N-methylacetamide]	79.3527
CC(Cl)C(=O)Nc1ccccc1Sc1ccccc1 (stereo not shown) [6-H10, 2-chloro-N-[2-(phenylsulfanyl)phenyl]propanamide]	56.4224
O=C(CCl)N1CCN(C(=O)c2cn(C3CC3)nn2)CC1 [5-D03, 2-chloro-1-[4-(1-cyclopropyl-1H-1,2,3-triazole-4-carbonyl)piperazin-1-yl]ethan-1-one]	109.446
CC(Cl)C(=O)N1CCCC(n2ccc(C(F)(F)F)n2)C1 (stereo not shown) [7-A08, 2-chloro-1-{3-[3-(trifluoromethyl)-1H-pyrazol-1-yl]piperidin-1-yl}propan-1-one]	84.3218
O=C(CCl)Cc1ccc(F)cc1 [10-G15, 1-chloro-3-(4-fluorophenyl)propan-2-one]	95.6945
CC(Cl)C(=O)N1C2CCC1CC(N(C)C(=O)c1ccccc1)C2 (stereo not shown) [6-L14, N-[8-(2-chloropropanoyl)-8-azabicyclo[3.2.1]octan-3-yl]-N-methylbenzamide]	87.6671
C=CC(=O)NCCNC(=O)c1cc2ccccc2[nH]1 [3-B21, N-{2-[(1H-indol-2-yl)formamido]ethyl}prop-2-enamide]	112.557
C=CC(=O)NC(c1noc(O)n1)C(C)(C)C (stereo not shown) [2-C14, N-[1-(5-hydroxy-1,2,4-oxadiazol-3-yl)-2,2-dimethylpropyl]prop-2-enamide]	93.9014

Compound	% of control remaining [%]
CC(Cl)C(=O)C=C1N(C)c2ccccc2C1(C)C (stereo not shown) [10-J22, 3-chloro-1-(1,3,3-trimethyl-2,3-dihydro-1H-indol-2-ylidene)butan-2-one]	91.6423
CSc1ccccc1NC(=O)CN(C)C(=O)CCl [4-L03, 2-chloro-N-methyl-N-({[2-(methylsulfanyl)phenyl]carbamoyl}methyl)acetamide]	116.282
N#CC(=Cc1ccc(Cl)cc1)C(=O)NCc1ccccc1 [9-G13, N-benzyl-3-(4-chlorophenyl)-2-cyanoprop-2-enamide]	74.5751
Cc1cc(C(=O)CCl)c(C)n1-c1ccc(C(C)(C)C)cc1 [10-N20, 1-[1-(4-tert-butylphenyl)-2,5-dimethyl-1H-pyrrol-3-yl]-2-chloroethan-1-one]	93.045
CC(Cl)C(=O)NCC1CCCCN1C(=O)C(F)(F)F (stereo not shown) [7-K13, 2-chloro-N-{[1-(2,2,2-trifluoroacetyl)piperidin-2-yl]methyl}propanamide]	77.9779
CC(Cl)C(=O)N1CCC(Cc2ccncc2)C1 (stereo not shown) [6-N11, 2-chloro-1-{3-[(pyridin-4-yl)methyl]pyrrolidin-1-yl}propan-1-one]	92.3689
CCCCNC(=O)C(C#N)=Cc1ccc2c(c1)OCCO2 [9-G11, N-butyl-2-cyano-3-(2,3-dihydro-1,4-benzodioxin-6-yl)prop-2-enamide]	85.724
COc1c(Cl)cc(Cl)cc1C=C(C#N)C(N)=O [9-M13, 2-cyano-3-(3,5-dichloro-2-methoxyphenyl)prop-2-enamide]	87.8994
C=CC(=O)N1CCC(OC2CCCC2)CC1 [1-L07, 1-[4-(cyclopentyloxy)piperidin-1-yl]prop-2-en-1-one]	87.2945
O=C(CCl)NCCCN1CCCCCC1=O [5-J10, 2-chloro-N-[3-(2-oxoazepan-1-yl)propyl]acetamide]	114.49
CC(C)NC(=O)C(C#N)=Cc1ccccc1Cl [9-A09, 3-(2-chlorophenyl)-2-cyano-N-(propan-2-yl)prop-2-enamide]	89.259
CC(Cl)C(=O)NC1CCc2cc(C#N)ccc21 (stereo not shown) [5-N17, 2-chloro-N-(5-cyano-2,3-dihydro-1H-inden-1-yl)propanamide]	96.6691
COC1(CNC(=O)CCl)CCC(C(F)F)CC1 (stereo not shown) [6-D21, 2-chloro-N-{[4-(difluoromethyl)-1-methoxycyclohexyl]methyl}acetamide]	97.2225
CC(=O)Nc1ccc(C=C(C#N)C(=O)NCc2ccccc2)cc1 [8-D12, N-benzyl-2-cyano-3-(4-acetamidophenyl)prop-2-enamide]	70.7682
O=C(CCl)c1ccc(O)cc1O [10-C14, 2-chloro-1-(2,4-dihydroxyphenyl)ethan-1-one]	100.682
Cc1cc(Cl)ccc1OC(C)C(=O)N1CCSSCC1 (stereo not shown) [10-J21, 2-(4-chloro-2-methylphenoxy)-1-(1,2,5-dithiazepan-5-yl)propan-1-one]	84.1613
CC(Cl)C(=O)Nc1cccc(C(F)(F)F)c1 (stereo not shown) [5-P14, 2-chloro-N-[3-(trifluoromethyl)phenyl]propanamide]	101.881
C=CC(=O)NC1CC(CC(F)(F)F)C1 (stereo not shown) [2-F09, N-[3-(2,2,2-trifluoroethyl)cyclobutyl]prop-2-enamide]	90.3503
Cc1cc(C2(NC(=O)C(C)Cl)CCOCC2)on1 (stereo not shown) [7-O13, 2-chloro-N-[4-(3-methyl-1,2-oxazol-5-yl)oxan-4-yl]propanamide]	80.0925
CC(Cl)C(=O)NCc1cc(-c2ccccc2)on1 (stereo not shown) [7-A13, 2-chloro-N-[(5-phenyl-1,2-oxazol-3-yl)methyl]propanamide]	82.868
O=C(CCl)N(Cc1ccc(F)cc1)C12CC3CC(CC(C3)C1)C2 [4-B11, N-(adamantan-1-yl)-2-chloro-N-[(4-fluorophenyl)methyl]acetamide]	70.0453
CC(Cl)C(=O)Nc1sc2c(c1C(N)=O)CCC2 (stereo not shown) [6-A21, 2-(2-chloropropanamido)-4H,5H,6H-cyclopenta[b]thiophene-3-carboxamide]	96.6158
COc1cc(C=C(C#N)C(N)=O)ccc1OC(F)F [8-P08, 2-cyano-3-[4-(difluoromethoxy)-3-methoxyphenyl]prop-2-enamide]	77.4303
